In US8759400B2, “Histone deacetylase inhibitors for enhancing activity of antifungal agents” (MethylGene Inc., priority 2005, dated 2014):

Assays:
[1] = tested on: C. glabrata (ATCC 90030); assay: MIC80 and checkerboard synergy with antifungal agents; assay type: cell-based, Candida glabrata; conditions: Nakaseomyces glabratus, ATCC90030; C. glabrata (90030); read-out: Cpd 4 MIC
[2] = tested on: C. albicans (ATCC 90028); assay: as above; assay type: cell-based; conditions: Candida albicans, ATCC90028; C. albicans (90028); read-out: Cpd 4 MIC
[3] = tested on: C. albicans (ATCC 90028), C. glabrata (ATCC 90030), C. parapsilosis (ATCC 22019), or C. tropicalis (ATCC 750); assay: Synergy of Compound 4 with antifungals of different mechanisms, broth microdilution

## O=C(Cc1ccc(CCCCc2ccccc2)cc1)NO [Cpd 4]
[1]
  MIC: 3.1 to 6.3 µg/mL
[2]
  MIC: 6.3 µg/mL
[3]; all azoles tested, all Candida species
  synergy with azoles: synergized
[3]; ergosterol synthesis inhibitors not acting on C-14 demethylase
  synergy with terbinafine and fenpropimorph: synergized
[3]; mechanism outside the ergosterol synthesis pathway
  synergy with nikkomycin: Synergy was also observed
[3]; mechanisms outside the ergosterol synthesis pathway
  synergy with amphotericin B, caspofungin, or 5-fluorocytosine: did not synergize
